Experimental data from article PMC9911399, “Two distinct binding modes provide the RNA-binding protein RbFox with extraordinary sequence specificity”.
Changes are numbered by the printed parent chain; changes in the protein carry UniProt numbers. Some of the results follow.

T1: RBFOX1 RRM (Homo sapiens, UniProt Q9NWB1 109-208)
T1 sequence: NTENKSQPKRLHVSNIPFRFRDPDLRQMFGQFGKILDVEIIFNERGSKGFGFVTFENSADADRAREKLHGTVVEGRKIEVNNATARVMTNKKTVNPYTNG

B1: UCAGAUU (DNA:RNA)
RNA: GGGAGACCGGAAUUCAGAUUGUCCUCAGAUUUUAAAUCCCGUCGUAGCCACCA
DNA 1: CAATCTGAATTCCGGTCTCCC
DNA 2: TGGTGGCTACGACGGGATT
B2: UUCACAG (DNA:RNA)
RNA: B1 RNA with C26U, A27C, G28A, A29C, U30A, U31G
DNA 1: CAATCTGAATTCCGGTCTCCC
DNA 2: TGGTGGCTACGACGGGATT
B3: CUUUAUU (DNA:RNA)
RNA: B1 RNA with U25C, C26U, A27U, G28U
DNA 1: CAATCTGAATTCCGGTCTCCC
DNA 2: TGGTGGCTACGACGGGATT
B4: CAUUGCU (DNA:RNA)
RNA: B1 RNA with U25C, C26A, A27U, G28U, A29G, U30C
DNA 1: CAATCTGAATTCCGGTCTCCC
DNA 2: TGGTGGCTACGACGGGATT
B5: UUUUUGA (DNA:RNA)
RNA: B1 RNA with C26U, A27U, G28U, A29U, U30G, U31A
DNA 1: CAATCTGAATTCCGGTCTCCC
DNA 2: TGGTGGCTACGACGGGATT
B6: CGUAGAA (DNA:RNA)
RNA: GGGAGACCGGAAUUCAGAUUGUCCCGUAGAAUUAAAUCCCGUCGUAGCCACCA
DNA 1: CAATCTGAATTCCGGTCTCCC
DNA 2: TGGTGGCTACGACGGGATT
B7: GGCUUCG (DNA:RNA)
RNA: B6 RNA with C25G, U27C, A28U, G29U, A30C, A31G
DNA 1: CAATCTGAATTCCGGTCTCCC
DNA 2: TGGTGGCTACGACGGGATT
B8: UUUCGCA (DNA:RNA)
RNA: B6 RNA with C25U, G26U, A28C, A30C
DNA 1: CAATCTGAATTCCGGTCTCCC
DNA 2: TGGTGGCTACGACGGGATT
B9: ACGACGG (DNA:RNA)
RNA: B6 RNA with C25A, G26C, U27G, G29C, A30G, A31G
DNA 1: CAATCTGAATTCCGGTCTCCC
DNA 2: TGGTGGCTACGACGGGATT
B10: ACUUCCC (DNA:RNA)
RNA: B6 RNA with C25A, G26C, A28U, G29C, A30C, A31C
DNA 1: CAATCTGAATTCCGGTCTCCC
DNA 2: TGGTGGCTACGACGGGATT
B11: UGGGCGA (DNA:RNA)
RNA: B6 RNA with C25U, U27G, A28G, G29C, A30G
DNA 1: CAATCTGAATTCCGGTCTCCC
DNA 2: TGGTGGCTACGACGGGATT
B12: AGCUCUC (DNA:RNA)
RNA: B6 RNA with C25A, U27C, A28U, G29C, A30U, A31C
DNA 1: CAATCTGAATTCCGGTCTCCC
DNA 2: TGGTGGCTACGACGGGATT
B13: AGGUUCC (DNA:RNA)
RNA: B6 RNA with C25A, U27G, A28U, G29U, A30C, A31C
DNA 1: CAATCTGAATTCCGGTCTCCC
DNA 2: TGGTGGCTACGACGGGATT
B14: GAUAACG (DNA:RNA)
RNA: B6 RNA with C25G, G26A, G29A, A30C, A31G
DNA 1: CAATCTGAATTCCGGTCTCCC
DNA 2: TGGTGGCTACGACGGGATT
B15: UCUUUGA (DNA:RNA)
RNA: B6 RNA with C25U, G26C, A28U, G29U, A30G
DNA 1: CAATCTGAATTCCGGTCTCCC
DNA 2: TGGTGGCTACGACGGGATT
B16: ACGCAAC (DNA:RNA)
RNA: B1 RNA with U25A, A27G, G28C, U30A, U31C
DNA 1: CAATCTGAATTCCGGTCTCCC
DNA 2: TGGTGGCTACGACGGGATT
B17: GAAUAAG (DNA:RNA)
RNA: B1 RNA with U25G, C26A, G28U, U30A, U31G
DNA 1: CAATCTGAATTCCGGTCTCCC
DNA 2: TGGTGGCTACGACGGGATT
B18: ACACUCG (DNA:RNA)
RNA: B1 RNA with U25A, G28C, A29U, U30C, U31G
DNA 1: CAATCTGAATTCCGGTCTCCC
DNA 2: TGGTGGCTACGACGGGATT
B19: CUCGCCG (DNA:RNA)
RNA: B6 RNA with G26U, U27C, A28G, G29C, A30C, A31G
DNA 1: CAATCTGAATTCCGGTCTCCC
DNA 2: TGGTGGCTACGACGGGATT
B20: GACUAAA (DNA:RNA)
RNA: B6 RNA with C25G, G26A, U27C, A28U, G29A
DNA 1: CAATCTGAATTCCGGTCTCCC
DNA 2: TGGTGGCTACGACGGGATT
B21: CUUCUGA (DNA:RNA)
RNA: B6 RNA with G26U, A28C, G29U, A30G
DNA 1: CAATCTGAATTCCGGTCTCCC
DNA 2: TGGTGGCTACGACGGGATT
B22: ACGACCU (DNA:RNA)
RNA: B1 RNA with U25A, A27G, G28A, A29C, U30C
DNA 1: CAATCTGAATTCCGGTCTCCC
DNA 2: TGGTGGCTACGACGGGATT
B23: CCUCGUA (DNA:RNA)
RNA: B6 RNA with G26C, A28C, A30U
DNA 1: CAATCTGAATTCCGGTCTCCC
DNA 2: TGGTGGCTACGACGGGATT
B24: CGCGGCU (DNA:RNA)
RNA: B6 RNA with U27C, A28G, A30C, A31U
DNA 1: CAATCTGAATTCCGGTCTCCC
DNA 2: TGGTGGCTACGACGGGATT
B25: CCCCUGU (DNA:RNA)
RNA: B1 RNA with U25C, A27C, G28C, A29U, U30G
DNA 1: CAATCTGAATTCCGGTCTCCC
DNA 2: TGGTGGCTACGACGGGATT
B26: UAAGAAG (DNA:RNA)
RNA: B1 RNA with C26A, U30A, U31G
DNA 1: CAATCTGAATTCCGGTCTCCC
DNA 2: TGGTGGCTACGACGGGATT
B27: AGGCUGU (DNA:RNA)
RNA: B6 RNA with C25A, U27G, A28C, G29U, A30G, A31U
DNA 1: CAATCTGAATTCCGGTCTCCC
DNA 2: TGGTGGCTACGACGGGATT
B28: GCGAUCG (DNA:RNA)
RNA: B6 RNA with C25G, G26C, U27G, G29U, A30C, A31G
DNA 1: CAATCTGAATTCCGGTCTCCC
DNA 2: TGGTGGCTACGACGGGATT
B29: ACGCAAG (DNA:RNA)
RNA: B1 RNA with U25A, A27G, G28C, U30A, U31G
DNA 1: CAATCTGAATTCCGGTCTCCC
DNA 2: TGGTGGCTACGACGGGATT
B30: CGCUUGC (DNA:RNA)
RNA: B6 RNA with U27C, A28U, G29U, A30G, A31C
DNA 1: CAATCTGAATTCCGGTCTCCC
DNA 2: TGGTGGCTACGACGGGATT
B31: UUGAUGG (DNA:RNA)
RNA: B6 RNA with C25U, G26U, U27G, G29U, A30G, A31G
DNA 1: CAATCTGAATTCCGGTCTCCC
DNA 2: TGGTGGCTACGACGGGATT

What follows are binders tested against T1, RBFOX1 RRM (assay: EMSA; HiTS-Eq, 1 nM pool, 10 min; buffer printed only for the single-RNA assays: 10 mM Tris pH 7.5, 150 mM NaCl, 3.4 mM EDTA, 0.001% NP-40, 30 C). Settings: tags: His6 N-terminal (pET28a); label: 5' 32P.
In short: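 A pool of RNA with 7 randomized nucleotides, 5′-radiolabelled and with DNA-annealed flanks, was equilibrated at 1 nM for 10 min in 50 µL with purified RbFox RRM, wild type or mutant, across increasing protein concentrations. Free RNA was separated by 8% native PAGE, excised, reverse-transcribed, barcoded by PCR and sequenced. Relative association constants were obtained from read-count changes of each RNA species versus the control reaction and normalised to the cognate motif.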
In the case of B1, the binding signal is reported as 0.00732 KA relative to UGCAUGU. B2 was tested, and the binding signal was 0.00618 KA relative to UGCAUGU. B3 was tested, and the binding signal was 0.00604 KA relative to UGCAUGU. B4 was tested, and the binding signal was 0.0103 KA relative to UGCAUGU. With B5 the binding signal was 0.0218 KA relative to UGCAUGU. With B6 the binding signal was 0.00813 KA relative to UGCAUGU. In the case of B7, the binding signal is reported as 0.0137 KA relative to UGCAUGU. In the case of B8, the binding signal is reported as 0.0125 KA relative to UGCAUGU. B9 was tested, and the binding signal was 0.0147 KA relative to UGCAUGU. In the case of B10, the binding signal is reported as 0.00296 KA relative to UGCAUGU. With B11 the binding signal was 0.029 KA relative to UGCAUGU. B12 was tested, and the binding signal was 0.00667 KA relative to UGCAUGU. With B13 the binding signal was 0.0132 KA relative to UGCAUGU. In the case of B14, the binding signal is reported as 0.0119 KA relative to UGCAUGU. In the case of B15, the binding signal is reported as 0.0194 KA relative to UGCAUGU. With B16 the binding signal was 0.00681 KA relative to UGCAUGU. In the case of B17, the binding signal is reported as 0.00785 KA relative to UGCAUGU. For B18, the binding signal was 0.00238 KA relative to UGCAUGU. B19 was tested, and the binding signal was 0.00773 KA relative to UGCAUGU. For B20, the binding signal was 0.00357 KA relative to UGCAUGU. For B21, the binding signal was 0.0251 KA relative to UGCAUGU. With B22 the binding signal was 0.00588 KA relative to UGCAUGU. In the case of B23, the binding signal is reported as 0.00353 KA relative to UGCAUGU. B24 was tested, and the binding signal was 0.016 KA relative to UGCAUGU. For B25, the binding signal was 0.0053 KA relative to UGCAUGU. With B26 the binding signal was 0.00847 KA relative to UGCAUGU. B27 was tested, and the binding signal was 0.0144 KA relative to UGCAUGU. For B28, the binding signal was 0.0184 KA relative to UGCAUGU. B29 was tested, and the binding signal was 0.0129 KA relative to UGCAUGU. In the case of B30, the binding signal is reported as 0.032 KA relative to UGCAUGU. B31 was tested, and the binding signal was 0.0169 KA relative to UGCAUGU.
